Common to all, as to experiment: Primary Screen for Target Class Profiling of Small Molecule Inhibitors of Methyltransferases
In experiment [1] the target is Glycine N-methyltransferase (Homo sapiens) (UniProt Q14749). The note with it: purified enzyme, MTase-Glo SAH luminescence; measured here: GNMT inhibition; at 40 µM; stronger effect = lower value. An outline of the steps: (§1)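 Each enzyme was assayed with SAM and its substrate. SAH formation detected by MTase-Glo luminescence; single-point 40 uM screen[…].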
Experiment [2] addresses Guanidinoacetate N-methyltransferase (Homo sapiens) (UniProt Q14353). As to conditions: purified enzyme, MTase-Glo SAH luminescence; measured here: GAMT inhibition; at 40 µM; stronger effect = lower value. An outline of the steps: as §1
Experiment [3] addresses Histamine N-methyltransferase (Homo sapiens) (UniProt P50135). As to conditions: purified enzyme, MTase-Glo SAH luminescence; measured here: HNMT inhibition; at 40 µM; stronger effect = lower value. An outline of the steps:
as §1

Experiment [4] has as its target Nicotinamide N-methyltransferase (Homo sapiens) (UniProt P40261). The note with it: purified enzyme, MTase-Glo SAH luminescence; measured here: NNMT inhibition; at 40 µM; stronger effect = lower value. The procedure, abridged: as §1
Experiment [5] addresses Phenylethanolamine N-methyltransferase (Homo sapiens) (UniProt P11086). The note with it: purified enzyme, MTase-Glo SAH luminescence; measured here: PNMT inhibition; at 40 µM; stronger effect = lower value. An outline of the steps: as §1

Some of the results follow. Shown are side measurements of this screen, not its main read-out; they come without a call.
% is scaled to controls: 0 for no effect and ±100 for the full control effect.

Turning to `CCCN1C(=O)c2cc3occc3n2CC1(C)C(=O)NC1CCCCCCC1` (configuration not stated), the activity change, negative = inhibition in experiment [1] is 0.39%; in experiment [2], 2.44%; in experiment [3], -2.25%; in experiment [4], 7.52%; in experiment [5], -0.06%.

With `CCOCCn1nc(C)cc1C(=O)N1CC(C)(C)[C@@](C)(O)C1`, the activity change, negative = inhibition in experiment [1] is -0.15%; in experiment [2] it was -2.19%; in experiment [3], 0.764%; in experiment [4], 3.79%; in experiment [5], -0.878%.

In the case of `CC(=O)Nc1ccc2c(c1)C1C=CCC1C(c1ccccc1F)N2` (configuration not stated), the activity change, negative = inhibition in experiment [1] is -36.4%; in experiment [2] it was -14.6%; in experiment [3] it was -17.4%; in experiment [4] it was -3.35%; in experiment [5], -30.5%.

Regarding `c1ccc(C2CN3CCSC3=N2)cc1` (configuration not stated), the activity change, negative = inhibition in experiment [1] was -7.55%; in experiment [2], 1.53%; in experiment [3], -8.87%; in experiment [4] it was -8.7%; in experiment [5], 3.47%.

Take `CCc1cnn2c(NCc3ccc[n+]([O-])c3)cc(N3CCCCC3CCO)nc12` (configuration not stated): the values for the activity change, negative = inhibition in experiment [1] and in experiment [3] were 3.51% and 11.7%, respectively.

On to `Cc1nc(CN2C[C@H](C(=O)N3CCN(CCO)CC3)C[C@@H]2c2ccc(F)cc2)cs1`, for which the activity change, negative = inhibition in experiment [1] is -4.07%; in experiment [2], 1.46%; in experiment [3], 0.86%; in experiment [4], -6.04%; in experiment [5] it was 14.5%.

Regarding `COc1ccc(C(=O)N[C@@H]2c3ccccc3C3(CCNCC3)[C@H]2OC)c(C)c1`, the activity change, negative = inhibition in experiment [1] is -2.58%; in experiment [2] it was -6.36%; in experiment [3], -3.07%; in experiment [4], -6.87%; in experiment [5], -3.5%.

Take `Cc1ccc(Cn2c(=O)c3ccc(C(=O)NC4CCCC4)cc3n3c(=O)n(CC(N)=O)nc23)cc1`: the activity change, negative = inhibition in experiment [1] is 3.68%; in experiment [2] it was 0.643%; in experiment [3] it was 3.76%; in experiment [4] it was -3.41%; in experiment [5], 1.85%.

For the molecule `COc1cccc(-c2cccc(C(=O)N3CCN(C(=O)Cc4cccc(Cl)c4)CC3)c2)c1`, the activity change, negative = inhibition was -4.73% in experiment [1]; 0.963% in experiment [2]; -0.898% in experiment [3]; -4.25% in experiment [4]; -1.87% in experiment [5].

Turning to `COc1ccc(C(=O)N(Cc2ccco2)S(=O)(=O)c2ccc3c(c2)n(C)c(=O)n3C)cc1`, the activity change, negative = inhibition in experiment [1] is -2.17%; in experiment [2] it was 0%; in experiment [3], 4.72%; in experiment [4] it was -13.3%; in experiment [5] it was -1.11%.

Consider `COc1ccc(C2(O)c3ccccc3NC(=O)C2O)cc1` (configuration not stated), for which the activity change, negative = inhibition in experiment [1] was 2.45%; in experiment [2], 0.545%; in experiment [3] it was 4.92%; in experiment [4] it was -13.5%; in experiment [5], 3.37%.

Consider `CCOC(=O)C1CCCN(C(=O)C2CC(c3ccc(F)c(C)c3)CN(C(=O)NC(C)C)C2)C1` (configuration not stated), for which the activity change, negative = inhibition in experiment [1] is -1.82%; in experiment [2] it was -1.23%; in experiment [3], -0.149%; in experiment [4] it was -7.21%; in experiment [5], -2.96%.

Regarding `CC1CCCC(NC(=O)C2(C)Cn3c(cc4sccc43)C(=O)N2Cc2ccc(F)cc2)C1C` (configuration not stated), the activity change, negative = inhibition in experiment [1] is 4.83%; in experiment [2] it was -0.672%; in experiment [3], 6.16%; in experiment [4], 0.914%; in experiment [5] it was 3.54%.

Consider `CC(C)CNC(=O)c1ccc2c(=O)n(CC(C)C)c3nn(Cc4ccccc4F)c(=O)n3c2c1`, for which the activity change, negative = inhibition was -0.717% in experiment [1]; 4.78% in experiment [2]; 1.33% in experiment [3]; -1.83% in experiment [4]; 1.81% in experiment [5].

As to `O=C1CCN(Cc2ccncc2)CCCC(CO)CCN1` (configuration not stated), the activity change, negative = inhibition was -3.15% in experiment [1]; -1.07% in experiment [2]; -2.76% in experiment [3]; -3.1% in experiment [4]; 1.73% in experiment [5].

Consider `O=C1c2ccccc2C(=O)c2cc(S(=O)(=O)NCCO)ccc21`, for which the activity change, negative = inhibition was -19.9% in experiment [1]; 1.81% in experiment [2]; -0.505% in experiment [3]; 0.177% in experiment [4]; -31.9% in experiment [5].

On to `CCCCN(CC)CCN1C(=O)c2cc3sc(CC)cc3n2CC1(C)C(=O)NC1CCCCC1` (configuration not stated), for which the activity change, negative = inhibition in experiment [1] is -1.23%; in experiment [2], 4.05%; in experiment [3], -7.84%; in experiment [4], 8.38%; in experiment [5] it was 0.798%.

For `CCCn1c(=O)c2cc(Cl)ccc2n2c(SCC(=O)Nc3ccc(C(C)C)cc3)nnc12`, the activity change, negative = inhibition in experiment [1] was 2.95%; in experiment [2] it was 0%; in experiment [3] it was 12.8%; in experiment [4], 3.68%; in experiment [5], 5.75%.

As for `CCc1ccc(C2c3cccn3-c3sc4c(c3CN2C(=O)Nc2cccc(OC)c2)CCCC4)cc1` (configuration not stated), the activity change, negative = inhibition in experiment [1] is -14.1%; in experiment [2], -0.167%; in experiment [3], -1.05%; in experiment [4], -11.6%; in experiment [5] it was -3.58%.

Turning to `COc1ccc(Cc2nccc3cc(OC)c(OC)cc23)cc1OC`, the activity change, negative = inhibition in experiment [1] is -47.4%; in experiment [2], -1.47%; in experiment [3] it was -4.64%; in experiment [4] it was -12.6%; in experiment [5], -3.64%.

Regarding `Cc1noc(C)c1S(=O)(=O)N(C)C1CCOc2ccccc21` (configuration not stated), the activity change, negative = inhibition is -6.24% in experiment [1]; -7.59% in experiment [2]; -2.45% in experiment [3]; -46.2% in experiment [4]; -8.48% in experiment [5].

Regarding `COc1cccc(CN2C(=O)c3cc4ccccc4n3CC2(C)C(=O)NCCCOC(C)C)c1` (configuration not stated), the activity change, negative = inhibition turned out to be 8.96% in experiment [1]; 0.914% in experiment [2]; 10.4% in experiment [3]; 14.5% in experiment [4]; 2.82% in experiment [5].

Turning to `CCC[C@@H]1O[C@@H]2C[C@H]3[C@@H]4CCC5=CC(=O)C=C[C@]5(C)[C@H]4[C@@H](O)C[C@]3(C)[C@]2(C(=O)CO)O1`, the activity change, negative = inhibition was 4.63% in experiment [1]; 8.03% in experiment [2]; 5.47% in experiment [3]; -14.7% in experiment [4]; 2.23% in experiment [5].

For `Cc1cnc(-c2ccccc2)n1C1CCN(S(=O)(=O)c2cccc(F)c2)CC1`, the activity change, negative = inhibition is -2.82% in experiment [1]; 1.88% in experiment [2]; 2.96% in experiment [3]; -4.5% in experiment [4]; 2.86% in experiment [5].

For the molecule `CCOc1cccc(C2c3cccn3-c3sc4c(c3CN2C(=O)Nc2ccc(C)c(F)c2)CCCC4)c1` (configuration not stated), the activity change, negative = inhibition in experiment [1] was -4.18%; in experiment [2], 4.61%; in experiment [3] it was -4.07%; in experiment [4], -7.43%; in experiment [5] it was 0.637%.

Regarding `COc1ccccc1NC(=O)c1sc(=S)n2c1[nH]c(=O)c1ccc(Cl)cc12`, the activity change, negative = inhibition was -2.12% in experiment [1]; 4.57% in experiment [2]; 5.42% in experiment [3]; -3.68% in experiment [4]; -19.6% in experiment [5].

For the molecule `CCC(C)NC(=O)c1ccc2c(=O)n(CC(C)C)c3nn(CC(=O)c4ccc(OC)cc4)c(=O)n3c2c1` (configuration not stated), the activity change, negative = inhibition in experiment [1] was determined as 2.23%; in experiment [2], 0%; in experiment [3], 8.61%; in experiment [4], 1.01%; in experiment [5], 1.42%.

For `Cc1nc2c(OCC(=O)OC(C)(C)C)cccn2c(=O)c1-c1cc(C)n(-c2cccc(F)c2)n1`, the activity change, negative = inhibition was -9.07% in experiment [1]; -9.77% in experiment [2]; -12.6% in experiment [3]; -23% in experiment [4]; -13.9% in experiment [5].

Consider `COC(=O)c1ccccc1NC(=O)Cn1nc2n(c1=O)CCCCC2`, for which the activity change, negative = inhibition in experiment [1] was -1.08%; in experiment [2] it was -1.48%; in experiment [3], 1.96%; in experiment [4] it was -5.95%; in experiment [5], 0.588%.

Regarding `O=C(NCC1CN(CC2CC2)CC12CN(c1ccccc1)C2)Nc1ccccc1` (configuration not stated), the activity change, negative = inhibition is -8.79% in experiment [1]; -6.21% in experiment [2]; -17.5% in experiment [3]; -8.77% in experiment [4]; -4.1% in experiment [5].

The values above are taken from PubChem BioAssay AID1745853 (National Center for Advancing Translational Sciences (NCATS), 2022).
